# Experimental data from PubChem BioAssay AID1794842 (National Center for Advancing Translational Sciences (NCATS), 2023).
# Out of some 2,800 compounds screened, fewer than 10 were called active. The call rests on the fitted dose curve; in most records, active means well fitted curve in the direction sought with a large enough effect; inconclusive means small, poorly fitted or top-dose-only effect, or another doubt; inactive means no such curve, though single readings can be large or run the other way. The list shows a part of the results.
# Biological target: Metallo-beta-lactamase type 2 (Klebsiella pneumoniae) (UniProt C7C422)
# Assay: qHTS to identify inhibitors of the New Delhi Metallo-beta-lactamase (NDM): Meropenem screen against the machine-based learning selections. Further: % of control where 0% means no effect.
# Details: Purified NDM-1, meropenem hydrolysis, absorbance 300 nm; at 38.4 µM (top of the series) unless noted
# Procedure, shortened: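 Hydrolysis by 2 nM NDM-1 was followed by absorbance after >30 min compound preincubation in HEPES pH 7.0 buffer with 1 uM Zn2SO4. For nitrocefin (16.7 uM, 15 min, 485 nm) and meropenem (50 uM, 30 min, 300 nm), each substrate ran on separate plates.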
# Chain of UniProt C7C422 (C7C422 whole entry, looked up): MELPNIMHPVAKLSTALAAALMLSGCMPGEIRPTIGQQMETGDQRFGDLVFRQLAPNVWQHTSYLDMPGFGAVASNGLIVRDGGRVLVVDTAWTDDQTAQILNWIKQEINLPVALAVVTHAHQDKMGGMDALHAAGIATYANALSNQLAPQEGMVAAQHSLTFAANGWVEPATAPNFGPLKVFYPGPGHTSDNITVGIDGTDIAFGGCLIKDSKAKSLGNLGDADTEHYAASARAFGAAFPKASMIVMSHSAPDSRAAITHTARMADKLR
row,Structure (SMILES),"activity change, negative = inhibition"
1,Cc1c(C(=O)NC2CC(c3nnc(CO)n3C3CC3)C2)n(C)c2c(C)cccc12 (stereo not given),inactive: 3.14%
2,CC(C)(C)CC(=O)N[C@H]1C[C@H]2C(=O)Nc3ccc(-c4cccs4)cc3C(=O)N2C1,inactive: 8.4% [at 57.5 µM]
3,CS(=O)(=O)N1CC(C(=O)Nc2ccc(N3CCOCC3)cc2)C2(CCCCC2)C1 (stereo not given),inactive: -0.306%
4,CS(=O)(=O)N1CCC(C2CCN(C(=O)Cc3cccs3)C2)CC1 (stereo not given),inactive: 0.291%
5,CC(=O)Nc1ccc(CC(=O)N2CCC(C)(c3noc(C)n3)CC2)cc1,inactive: 0.338%
6,CC(C)Nc1ncc(C(=O)NC2CCCN(CCc3ccccc3)C2)cn1 (stereo not given),inactive: 1.19%
7,CC1(C(=O)NCc2cccnc2)CCc2cnc(NCc3ccccc3)nc21 (stereo not given),inactive: -3.15% [at 57.5 µM]
8,O=C(O)c1cccc([S+](=O)([O-])N2CC(CNC(=O)c3ccccc3)C3(CN(c4ccccc4)C3)C2)c1 (stereo not given),inactive: -2.54%
9,CCN1CCN(C2(C(=O)NCCc3ccccc3)Cc3ccccc3C2)CC1,inactive: -1.55%
10,COc1cccc(Nc2cc3c(cn2)CN(Cc2cccnc2)CCN3)c1,inactive: -3.69% [at 57.5 µM]
11,CC[C@@]1(C(=O)O)C[C@H](C(=O)NC(CO)CO)[C@H](c2ccc(F)cc2)N1C,inactive: 21.7%
12,COc1ccc(C(=O)N[C@H](Cc2ccccn2)C2CC(O)C2)cc1F (stereo not given in full),inactive: -0.207%
13,Cc1noc2c(Nc3ccc(C(N)=O)cc3)cc(-c3ccc(F)cc3)nc12,inactive: -1.96% [at 57.5 µM]
14,CN(CCO)C[C@@H]1CN(C(=O)c2nc3ccccc3[nH]c2=O)C[C@@H]1CO,inactive: 1.08%
15,Cc1cncc(C(=O)N2CC[C@@H](c3ccc4ccccc4c3)[C@H](O)C2)c1,inactive: -0.608%
16,CN1[C@@H](CCC(=O)N2CCN(c3ccccc3)CC2)CNC(=O)[C@@H]2[C@H]1CCN2CC(C)(C)C,inactive: 1.39%
17,O=C(N[C@H](c1cccs1)C1CC(O)C1)C1CCN(C2CCOCC2)CC1 (stereo not given in full),inactive: -0.235%
18,Cc1cccc(Nc2nc(N)nc(CN3CC[C@@H](N)[C@H](O)C3)n2)c1,inactive: 8.91%
19,O=C(Nc1ccc2c(c1)OCO2)C1CCc2sc(C(=O)N3CCCC3)cc2C1 (stereo not given),inactive: 4.03%
20,CN(C)C(=O)N1CCCn2nc(CNC(=O)c3ccc4[nH]ccc4c3)cc2C1,inactive: 2.4%

row,Structure (SMILES),"activity change, negative = inhibition"
1,Fc1ccc(-c2cnc([C@@H]3COCCN3C3CCC3)[nH]2)cc1,inactive: -0.292% [at 57.5 µM]
2,COc1ccc(CNC(=O)[C@@H]2Cc3nc[nH]c3CN2Cc2ccc(Cl)cc2)cc1,inactive: 18% [at 57.5 µM]
3,Cc1ccc(-c2cc(O)c3c(c2)CNCCO3)s1,inactive: 10.5%
4,O=C(c1ccc2nccnc2c1)N1CCC2(CC1)Nc1ccccc1NC2=O,inactive: 5.68%
5,c1ccc(CN2CC(CNc3cccnc3)C3(C2)CN(c2ccccc2)C3)cc1 (stereo not given),inactive: 1.76% [at 57.5 µM]
6,O=C(Nc1ccc([C@H]2OCC(=O)N(CC3CCCCC3)[C@@H]2CO)cc1)c1ccccn1,inactive: 35.5% [at 57.5 µM]
7,CC(C)NC(=O)C[C@@H]1C[C@H]2O[C@H](CNCc3cnccc3Cl)[C@@H](O)[C@H]2O1,inactive: 1.51% [at 57.5 µM]
8,COCCNC(=O)C[C@@H]1C[C@@H](C(C)C)[C@H](CNC(=O)CCC(=O)O)C=C1C,inactive: 2.81% [at 57.5 µM]
9,COc1ccccc1-c1[nH]nc2ncc(-c3cccc(O)c3)nc12,inactive: 3.21% [at 57.5 µM]
10,O=C1[C@@H]2C[C@@H](CN2Cc2cnc3ccccc3c2)Oc2ccccc2N1Cc1ccccc1,inactive: 1.36%
11,O=C(NC[C@H]1O[C@@H](CC(=O)N2CCOCC2)[C@H](O)[C@@H]1O)Nc1ccc(F)cc1F,inactive: 8.7% [at 57.5 µM]
12,CCn1c(C)cc(C)c(C(=O)NCC2CCN(c3cnn(C)c(=O)c3)C2)c1=O (stereo not given),inactive: 6.1%
13,CC(C)C1c2nccn2CCCN1C(=O)CN1CCCC1=O (stereo not given),inactive: -1.43%
14,Cc1ccc2c(c1)nc1n2[C@@H](CNC(C)C)COC1,inactive: 0.33% [at 76.7 µM]
15,Cc1noc(C)c1S(=O)(=O)N1CCCC(Cc2nncn2CC2CC2)C1 (stereo not given),inactive: 2.13%
16,O=C(NC[C@H]1O[C@@H](CC(=O)N2CCN(c3ccc(F)cc3)CC2)[C@H](O)[C@@H]1O)c1ccco1,inactive: 6.44%
17,COc1ccc(C(=O)N[C@@H]2CN(C(=O)NC3CCCCC3)CCC[C@H]2O)cc1,inactive: -0.965% [at 57.5 µM]
18,O=C(N[C@@H]1CCN(Cc2ccc3nsnc3c2)C[C@H]1O)c1cnccn1,inactive: 11.7%
19,CCC[S+](=O)([O-])N1CCN(C(=O)N2CC3CC(C2)[C@H]2CCCC(=O)N2C3)CC1 (stereo not given in full),inactive: -3.2%
20,COc1ccc(-c2ccc3c(c2)C(=O)N2CC[C@H](NC(=O)NC4CCCCC4)[C@H]2C(=O)N3)cc1,inactive: 9.01%
